Lines with a small IC50 respond at low doses; fits outside the tested doses are given as limits. The AUC spans the tested range (256-fold, ending at the top dose) of the same fit; values near 1 show little effect. For some assays here: A top dose marked as inferred is not printed in the source and was worked back from the curve model.
Experiments:
Assay in all cases: Viability of human cancer cell lines after 72 h of drug (GDSC screen)
PD-173074 = compound: CCN(CC)CCCCNc1ncc2cc(-c3cc(OC)cc(OC)c3)c(NC(=O)NC(C)(C)C)nc2n1 [PD-173074]; settings: top dose 2 µM; top dose inferred
Protocol: (§1)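 Human cancer cell lines in 384-well plates, medium with 10% serum, drug for 72 h over a 256-fold dose range (nine 2-fold or five 4-fold steps up to the top dose). Adherent lines were fixed and stained with the nucleic acid dye Syto60, suspension lines read with resazurin; signal relative to control wells, capped at 0 and 100%. One two-parameter sigmoid per drug and line, fitted in a mixed model over all curves with the slope shared within a line.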

SB590885 = compound: CN(C)CCOc1ccc(-c2nc(-c3ccncc3)c(-c3ccc4c(c3)CC/C4=N\O)[nH]2)cc1 [SB590885]; settings: top dose 5 µM; top dose inferred
Protocol: as §1

Lapatinib = compound: CS(=O)(=O)CCNCc1ccc(-c2ccc3ncnc(Nc4ccc(OCc5cccc(F)c5)c(Cl)c4)c3c2)o1 [Lapatinib]; settings: top dose 2 µM
Protocol: as §1

TGX221 = compound: Cc1cc(C(C)Nc2ccccc2)c2nc(N3CCOCC3)cc(=O)n2c1 [TGX221]; settings: top dose 10 µM
Protocol: as §1

| Cell Line | AUC (PD-173074) | IC50 (PD-173074) | AUC (SB590885) | IC50 (SB590885) | AUC (Lapatinib) | IC50 (Lapatinib) | AUC (TGX221) | IC50 (TGX221) |
| --- | --- | --- | --- | --- | --- | --- | --- | --- |
| VCaP (prostate, adherent) | 0.971 | > 2000 nM | 0.961 | > 5000 nM | 0.978 | > 2000 nM | 0.98 | > 10000 nM |
| COLO-320-HSR (large intestine, suspension) | 0.991 | > 2000 nM | 0.991 | > 5000 nM | 0.989 | > 2000 nM | 0.989 | > 10000 nM |
| MEG-01 (chronic myeloid leukaemia, suspension) | 0.971 | > 2000 nM | 0.986 | > 5000 nM | 0.974 | > 2000 nM | 0.988 | > 10000 nM |
| NCI-H64 (small cell lung carcinoma, suspension) | 0.996 | > 2000 nM | 0.996 | > 5000 nM | 0.996 | > 2000 nM | 0.996 | > 10000 nM |
| ME-1 (acute myeloid leukaemia, suspension) | 0.98 | > 2000 nM | 0.988 | > 5000 nM | 0.989 | > 2000 nM | 0.989 | > 10000 nM |
| GT3TKB (stomach, adherent) | 0.963 | > 2000 nM | 0.989 | > 5000 nM | 0.952 | > 2000 nM | 0.987 | > 10000 nM |
| REH (B-cell leukaemia, suspension) | 0.951 | > 2000 nM | 0.973 | > 5000 nM | 0.974 | > 2000 nM | 0.985 | > 10000 nM |
| NCI-H2227 (small cell lung carcinoma, semi-adherent) | 0.924 | > 2000 nM | 0.986 | > 5000 nM | 0.985 | > 2000 nM | 0.983 | > 10000 nM |
| D-542MG (glioma, adherent) | 0.984 | > 2000 nM | 0.984 | > 5000 nM | 0.947 | > 2000 nM | 0.615 | 1390 nM |
| DB (B-cell lymphoma, suspension) | 0.899 | > 2000 nM | 0.9 | > 5000 nM | 0.979 | > 2000 nM | 0.938 | > 10000 nM |
| RPMI-8402 (T-cell lymphoblastic leukaemia, suspension) | 0.969 | > 2000 nM | 0.991 | > 5000 nM | 0.975 | > 2000 nM | 0.958 | > 10000 nM |
| NCI-H211 (small cell lung carcinoma, adherent) | 0.981 | > 2000 nM | 0.972 | > 5000 nM | 0.979 | > 2000 nM | 0.974 | > 10000 nM |
| TE-5 (oesophagus, adherent) | 0.978 | > 2000 nM | 0.969 | > 5000 nM | 0.873 | > 2000 nM | 0.978 | > 10000 nM |
| OCI-M1 (acute myeloid leukaemia, suspension) | 0.991 | > 2000 nM | 0.994 | > 5000 nM | 0.993 | > 2000 nM | 0.995 | > 10000 nM |
| WSU-NHL (lymphoid neoplasm, suspension) | 0.971 | > 2000 nM | 0.978 | > 5000 nM | 0.989 | > 2000 nM | 0.961 | > 10000 nM |
| RS4-11 (leukaemia, suspension) | 0.923 | > 2000 nM | 0.989 | > 5000 nM | 0.968 | > 2000 nM | 0.958 | > 10000 nM |
| JJN-3 (haematopoietic neoplasm, suspension) | 0.991 | > 2000 nM | 0.992 | > 5000 nM | 0.993 | > 2000 nM | 0.992 | > 10000 nM |
| JVM-2 (lymphoid neoplasm, suspension) | 0.933 | > 2000 nM | 0.96 | > 5000 nM | 0.978 | > 2000 nM | 0.97 | > 10000 nM |
| ES3 (Ewing sarcoma, adherent) | 0.979 | > 2000 nM | 0.985 | > 5000 nM | 0.983 | > 2000 nM | 0.967 | > 10000 nM |
| HAL-01 (lymphoblastic leukaemia, suspension) | 0.938 | > 2000 nM | 0.986 | > 5000 nM | 0.989 | > 2000 nM | 0.812 | 4580 nM |
| CESS (acute myeloid leukaemia, suspension) | 0.987 | > 2000 nM | 0.99 | > 5000 nM | 0.986 | > 2000 nM | 0.985 | > 10000 nM |
| JVM-3 (lymphoid neoplasm, suspension) | 0.943 | > 2000 nM | 0.952 | > 5000 nM | 0.987 | > 2000 nM | 0.987 | > 10000 nM |
| NCI-H2081 (small cell lung carcinoma, suspension) | 0.988 | > 2000 nM | 0.988 | > 5000 nM | 0.989 | > 2000 nM | 0.989 | > 10000 nM |

| Cell Line | AUC (PD-173074) | IC50 (PD-173074) | AUC (SB590885) | IC50 (SB590885) | AUC (Lapatinib) | IC50 (Lapatinib) | AUC (TGX221) | IC50 (TGX221) |
| --- | --- | --- | --- | --- | --- | --- | --- | --- |
| NB6 (neuroblastoma, adherent) | 0.984 | > 2000 nM | 0.984 | > 5000 nM | 0.982 | > 2000 nM | 0.984 | > 10000 nM |
| HT-144 (melanoma, adherent) | 0.981 | > 2000 nM | 0.552 | 439 nM | 0.984 | > 2000 nM | 0.904 | > 10000 nM |
| MDST8 (large intestine, adherent) | 0.988 | > 2000 nM | 0.962 | > 5000 nM | 0.983 | > 2000 nM | 0.982 | > 10000 nM |
| NCI-H1092 (small cell lung carcinoma, suspension) | 0.989 | > 2000 nM | 0.99 | > 5000 nM | 0.99 | > 2000 nM | 0.99 | > 10000 nM |
| NCI-H510A (small cell lung carcinoma, semi-adherent) | 0.959 | > 2000 nM | 0.987 | > 5000 nM | 0.99 | > 2000 nM | 0.99 | > 10000 nM |
| ES8 (Ewing sarcoma, adherent) | 0.973 | > 2000 nM | 0.952 | > 5000 nM | 0.972 | > 2000 nM | 0.976 | > 10000 nM |
| NB14 (neuroblastoma, adherent) | 0.989 | > 2000 nM | 0.989 | > 5000 nM | 0.989 | > 2000 nM | 0.985 | > 10000 nM |
| ARH-77 (myeloma, suspension) | 0.968 | > 2000 nM | 0.971 | > 5000 nM | 0.983 | > 2000 nM | 0.924 | > 10000 nM |
| COLO-800 (melanoma, adherent) | 0.963 | > 2000 nM | 0.964 | > 5000 nM | 0.987 | > 2000 nM | 0.957 | > 10000 nM |
| TE-1 (oesophagus, adherent) | 0.982 | > 2000 nM | 0.982 | > 5000 nM | 0.774 | 999 nM | 0.9 | > 10000 nM |
| GA-10 (Burkitt lymphoma, suspension) | 0.971 | > 2000 nM | 0.988 | > 5000 nM | 0.99 | > 2000 nM | 0.786 | 3610 nM |
| NB69 (neuroblastoma, adherent) | 0.959 | > 2000 nM | 0.98 | > 5000 nM | 0.985 | > 2000 nM | 0.989 | > 10000 nM |
| NB-4 (acute myeloid leukaemia, suspension) | 0.976 | > 2000 nM | 0.953 | > 5000 nM | 0.991 | > 2000 nM | 0.955 | > 10000 nM |
| KU812 (chronic myeloid leukaemia, suspension) | 0.939 | > 2000 nM | 0.948 | > 5000 nM | 0.984 | > 2000 nM | 0.951 | > 10000 nM |
| CAS-1 (glioma, adherent) | 0.922 | > 2000 nM | 0.982 | > 5000 nM | 0.971 | > 2000 nM | 0.694 | 2700 nM |
| DND-41 (T-cell leukaemia, suspension) | 0.983 | > 2000 nM | 0.947 | > 5000 nM | 0.982 | > 2000 nM | 0.983 | > 10000 nM |
| BB30-HNC (head and neck, adherent) | 0.965 | > 2000 nM | 0.921 | > 5000 nM | 0.579 | 204 nM | 0.958 | > 10000 nM |
| P30-OHK (lymphoblastic leukaemia, suspension) | 0.945 | > 2000 nM | 0.99 | > 5000 nM | 0.985 | > 2000 nM | 0.98 | > 10000 nM |
| SUP-HD1 (Hodgkin lymphoma, suspension) | 0.968 | > 2000 nM | 0.985 | > 5000 nM | 0.975 | > 2000 nM | 0.955 | > 10000 nM |
| NCI-H720 (lung carcinoid, suspension) | 0.992 | > 2000 nM | 0.992 | > 5000 nM | 0.992 | > 2000 nM | 0.969 | > 10000 nM |
| PF-382 (T-cell lymphoblastic leukaemia, suspension) | 0.991 | > 2000 nM | 0.988 | > 5000 nM | 0.95 | > 2000 nM | 0.99 | > 10000 nM |
| CL-11 (large intestine, adherent) | 0.974 | > 2000 nM | 0.973 | > 5000 nM | 0.987 | > 2000 nM | 0.985 | > 10000 nM |
| ES1 (Ewing sarcoma, adherent) | 0.986 | > 2000 nM | 0.986 | > 5000 nM | 0.985 | > 2000 nM | 0.939 | > 10000 nM |

From the supplement of paper PMC4967469
